Some of the results follow.

The experiment concerns PfAP2-HC AP2 domain (GST-tagged). The experiment is described as follows: gcPBM binding intensity (ln(normalized median fluorescence intensity)); higher = stronger DNA binding. An outline of the steps:
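Using an Agilent 4 × 180k array, primer-extended double-stranded 36-bp intergenic genomic probes and negative controls were exposed for 1 h to GST-fused P. falciparum DNA-binding domains expressed in E. coli. Binding was carried out in 1× PBS with 1% milk, 0.2 mg/ml BSA, 0.5% salmon testes DNA and 0.03% Triton X-100, and protein was detected with Alexa488 anti-GST antibody and a 488 nm scan. Binding intensity is the highest Masliner-normalised natural-log median intensity across replicate spots of either probe orientation.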
For “ACAAGTAATTAAGAGTGTACATAACTATAAATCCAA [XGTACX_site5215]”, the “gcPBM binding intensity (ln)” value was 10.1.

“GATATGATGAGATTGATATTCATAAGAGGATTAATG [GTGCAC_negctrl_site515]”: the “gcPBM binding intensity (ln)” value turned out to be 9.59.

“TGTATGTATGTATTATTTGTTATTTTAATTTTTTTG [TGCATGCA_negctrl_site256]”: the “gcPBM binding intensity (ln)” value stood at 9.86.

With “GAGATTTATTTATGTGCACACTAGAACAATTGGATC [CACACA_site2090]”, the “gcPBM binding intensity (ln)” value is 9.82.

On to “CTTTTTTCAAAACACACACACAAGAAAATATATATA [CACACA_site3109]”, for which the “gcPBM binding intensity (ln)” value was 10.1.

As for “TTTTTTTTTTTTGTGCGTACATACCATTTTAATAAT [XGTACX_site2760]”, the “gcPBM binding intensity (ln)” value is 9.68.

With “AAGACATTTTTTAAGGTGCTTTGGAAAAAGGAGTAT [GTGCAC_site9816]”, the “gcPBM binding intensity (ln)” value came to 9.7.

On to “GATGTGATGTATTTGGTATTTTTCGATGTTGGTAGG [CACACA_negctrl_site355]”, for which the “gcPBM binding intensity (ln)” value came to 10.

For “TATTATATATCAAAATGTACATTAATTTGAGTAATT [XGTACX_site5434]”, the “gcPBM binding intensity (ln)” value turned out to be 9.52.

As for “TTACCTCTTTGAAATATACACACTAATCATATCAAC [CACACA_site8778]”, the “gcPBM binding intensity (ln)” value was 9.76.

For “TTTTTGCTATTCTATTATATATATAATATATTTTAC [CACACA_negctrl_site262]”, the “gcPBM binding intensity (ln)” value was found to be 9.9.

With “TGTTCAGTAGGGCACACACACAACAAAATAAAAAAA [CACACA_site378]”, the “gcPBM binding intensity (ln)” value was 10.2.

With “ATGAGTTACATGGGAAAAATATATATATATATATAT [CACACA_negctrl_site579]”, the “gcPBM binding intensity (ln)” value was determined as 9.48.

For “TGATAAATATGGAGCACACACACATAAACATACATA [CACACA_site420]”, the “gcPBM binding intensity (ln)” value was found to be 10.4.

Turning to “TTGTTGTATTATTTATGTACATATGTATATGTATAT [XGTACX_site1315]”, the “gcPBM binding intensity (ln)” value was 9.93.

For “TTTAAAAGATAAAACACACATACTAATAAAAAACAA [CACACA_site2556]”, the “gcPBM binding intensity (ln)” value is 9.92.

Take TTGTATCCTTAATGCATGCACCAAATAACAAAAGTA: the “gcPBM binding intensity (ln)” value stood at 9.44.

On to “AAAAAAAAAAAAAAAAGGGGGGGAGGGATTGAAAAA [CACACA_negctrl_site193]”, for which the “gcPBM binding intensity (ln)” value worked out at 9.92.

Take “ACAGTATTTCGAGATGGTACACATATATATATATAT [XGTACX_site6880]”: the “gcPBM binding intensity (ln)” value turned out to be 9.78.

On to “AATGAGGATATATACACACATACATTAAAAAAATAT [CACACA_site1849]”, for which the “gcPBM binding intensity (ln)” value was 9.96.

In the case of “ACATATATAAAATAATGTACATTTTTAAGAATGCGT [XGTACX_site7654]”, the “gcPBM binding intensity (ln)” value was 9.76.

With “ATTATAATTGCATATACACACAAAGGTTCATAACAA [CACACA_site7440]”, the “gcPBM binding intensity (ln)” value worked out at 9.76.

Take “TAAAGGCAAACAAACACACACACATATATACATATA [CACACA_site2123]”: the “gcPBM binding intensity (ln)” value worked out at 11.1.

For the sequence “CCAATACTGTTTAAATGTACAAGTAGGAGGTTAATT [XGTACX_site7260]”, the “gcPBM binding intensity (ln)” value came out at 9.57.

Consider “AAAAATTAACAAAAGGTGCAAACAAATAGTGGTTTT [GTGCAC_site9998]”, for which the “gcPBM binding intensity (ln)” value came to 10.1.

On to “AAAATTTAATATAATGCACACATAAAAAAAAATTCA [CACACA_site8640]”, for which the “gcPBM binding intensity (ln)” value turned out to be 9.77.

As to TCCTGCCTCTCTTTGGTGCGTTGTAACCCTCGAGGA, the “gcPBM binding intensity (ln)” value came to 9.55.

Regarding “ATATTAATATACATATGTACATATATATATATATAT [XGTACX_site7425]”, the “gcPBM binding intensity (ln)” value is 9.8.

On to “TAAATTATTTATAAAGCACACAAGAAAAAATAAAAT [CACACA_site2132]”, for which the “gcPBM binding intensity (ln)” value turned out to be 9.84.

Take “ATATATATGTATATGTGTACTTATATTTGTCATTTT [XGTACX_site1317]”: the “gcPBM binding intensity (ln)” value stood at 9.74.

For the sequence “GAACAAAAGGAATGTTGTACATAAAAAATGAAAAAT [XGTACX_site3929]”, the “gcPBM binding intensity (ln)” value is 9.8.

On to “AAAAAAATTAAACACACACACACATATATATATATA [CACACA_site4718]”, for which the “gcPBM binding intensity (ln)” value stood at 11.5.

As to “AAAAAAGTAAAAAGTGCATGTAAAATATAAGTATCT [TGCATGCA_site55]”, the “gcPBM binding intensity (ln)” value came out at 10.2.

As for “TTTTTTTTTTATTTTGCACACTTCTAATTTAGTTGT [CACACA_site3429]”, the “gcPBM binding intensity (ln)” value was 9.9.

In the case of “GTTATTCTTAATTTTTGTACACATTTTTATATTATT [XGTACX_site7227]”, the “gcPBM binding intensity (ln)” value is 10.1.

As to “AATTCCTATAATGAGAGTACGCATTAGAACAGTAGG [XGTACX_site5721]”, the “gcPBM binding intensity (ln)” value was found to be 9.66.

On to “TTGATAAAAAAAAAAAAATAAAAAAAAAATAAAAAA [XGTACX_negctrl_site480]”, for which the “gcPBM binding intensity (ln)” value worked out at 9.29.

Consider “AATAAATATATAAATACACACAAACATACAGATATA [CACACA_site6088]”, for which the “gcPBM binding intensity (ln)” value turned out to be 10.2.

As to “TTTAAAAGATAAAGACTGCACTTTAAGCACACAAAT [GTGCAC_site9752]”, the “gcPBM binding intensity (ln)” value amounted to 9.7.

On to “TTTATATCGACTCTTCTTTATATAAGTTGTGATGTT [TGCATGCA_negctrl_site362]”, for which the “gcPBM binding intensity (ln)” value stood at 9.76.

Regarding TAAAGTGTAAAGAAGGTGCTCATTATTTATTTTTTT, the “gcPBM binding intensity (ln)” value came to 9.62.

For “AGTTTCCTTGAGAAAAGTACGTAATACTACATATAT [XGTACX_site818]”, the “gcPBM binding intensity (ln)” value was 9.91.

With “TTTATATTAGGTCTTGAACGATTTTCATCATTATTA [TGCATGCA_negctrl_site100]”, the “gcPBM binding intensity (ln)” value worked out at 9.52.

As for “ATATGATATATTTTATGTACATATAAAACATATATA [XGTACX_site4297]”, the “gcPBM binding intensity (ln)” value stood at 9.51.

For “TTATACTTTTTTTCTTGGTGTAGAAAAAAAAGTTAG [CACACA_negctrl_site1207]”, the “gcPBM binding intensity (ln)” value was found to be 9.22.

For “AAAAAAGAAACAAACACACATACATACAAACAAACA [CACACA_site142]”, the “gcPBM binding intensity (ln)” value came out at 10.6.

Turning to “AAATTGTAGAAGCGTATTTCTCGAACTGGATGAATA [CACACA_negctrl_site1373]”, the “gcPBM binding intensity (ln)” value worked out at 9.72.

“AATTAATGGAAACAAGTCAAATGATCTTTATGCATA [TGCATGCA_negctrl_site540]”: the “gcPBM binding intensity (ln)” value stood at 9.53.

Regarding “AACAAGGCCCGGTACTGTACATTTTTTCATAACATT [XGTACX_site6134]”, the “gcPBM binding intensity (ln)” value worked out at 9.62.

For the sequence “TATATACATATATACACACACATATATTATATATAT [CACACA_site275]”, the “gcPBM binding intensity (ln)” value amounted to 10.4.

Take “GTATGTATATTTATCTGTACATATTTATGTATTCTT [XGTACX_site2112]”: the “gcPBM binding intensity (ln)” value worked out at 9.87.

For the sequence “AAAATATAAATTCATGTGCACATATATATTTTGTTA [GTGCAC_site9782]”, the “gcPBM binding intensity (ln)” value stood at 9.68.

Turning to “AGGAAAAAATCGAGTAGTACACATTTAGAAATATAA [XGTACX_site8019]”, the “gcPBM binding intensity (ln)” value came to 9.6.

Consider “ATATCACATATATATATATATATATATATATATATA [XGTACX_negctrl_site463]”, for which the “gcPBM binding intensity (ln)” value came out at 9.55.

Consider “AAAATTGATATATGCACACATATATATATTAAATAT [CACACA_site763]”, for which the “gcPBM binding intensity (ln)” value is 9.98.

Regarding “TTTCATTCTGGTATCACACATTTATTTTCTAGTTTA [CACACA_site4286]”, the “gcPBM binding intensity (ln)” value stood at 9.81.

Source of the values: the supplement of paper PMC11417369.
